Data published in PubChem BioAssay AID2546 (National Center for Advancing Translational Sciences (NCATS), 2010).
The campaign covered roughly 310,000 compounds. About 11,000 (3.5%) were called active. Inconclusive means that the source gave no clear call. Such entries were picked first, then a sample of the others. Calls follow the shape of the dose curve; as a rule, active = well fitted inhibition curve with a large enough effect; inconclusive = small, poorly fitted or top-dose-only effect, or effect the other way; inactive = flat fitted curve, though single readings scatter. Potencies of inconclusive entries are left out as doubtful fits.

Experiment: VP16 counterscreen qHTS for inhibitors of ROR gamma transcriptional activity;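 also: Gal4-VP16 expression switched on by copper sulfate through the metallothionein promoter; nearly all actives have a fitted effect of over 50% in size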
Details: Drosophila S2 Gal4-VP16 UAS-luciferase, luminescence, 20 h; activity, negative = inhibition: at 53.6 µM (top of the series)
% is scaled to controls: 0 for no effect and ±100 for the full control effect; potency is read from the fitted curve at half-maximal effect; tags tell the direction and shape of the fitted curve.

Row | SMILES | Potency | activity, negative = inhibition
1 | O=C(Nc1cccc(C(F)(F)F)c1)Oc1ccc(Cl)c2cccnc12 | active: 1 µM | 
2 | C=CCNC(=S)NNC(=O)COc1ccc2cc(Br)ccc2c1 | inconclusive [inhibitor, single point] | 
3 | O=C1CC(C(=O)N(c2ccc(F)cc2)C(C(=O)NC2CCCC2)c2ccccn2)CS1 (centres undefined) |  | inactive: -2.65%
4 | Cc1cccc(-n2cc(-c3ccccc3)[nH]c2=S)c1 | active: 7.08 µM | 
5 | CS(=O)(=O)/C(C#N)=C\c1cnc(S(=O)(=O)c2ccccc2)s1 | active: 7.94 µM | 
6 | CC(C)CCNC(=O)C1CCCN(S(=O)(=O)c2ccc(-n3cnnn3)cc2)C1 (centres undefined) |  | inactive: -1.87%
7 | Brc1ccc(-c2csc(NC3=NCCCCC3)n2)cc1 | inconclusive [activator, full curve, poor fit] | 
8 | COc1ccc(-c2oc3ccc(C)cc3c(=O)c2O)cc1OC | inconclusive [inhibitor, full curve] | 
9 | COc1ccc(-c2cc(C(F)(F)F)nc(SCC(=O)N3CCOCC3)n2)cc1OC |  | inactive: -17.6%
10 | C/[N+]([O-])=C1\Cc2ccccc2C1=O |  | inactive: 10%
11 | Cc1ccc(C(C(=O)NC(C)(C)C)N(CC2CCCO2)C(=O)Cn2nnc(-c3ccc(C)o3)n2)cc1 (centres undefined) |  | inactive: -10.4%
12 | Clc1ccc(-c2ccnc(Oc3cc(Cl)ccc3Cl)n2)cc1 | inconclusive [inhibitor, single point] | 
13 | O=c1c2ccccc2nc(COc2ccccc2)n1/N=C/c1cc([N+](=O)[O-])ccc1O | active: 3.98 µM | 
14 | C/C(=N/NC(N)=S)c1ccccc1[N+](=O)[O-] | inconclusive [inhibitor, single point] | 
15 | CCOC(=O)N1CCC(n2c(SCC(=O)N3CCCC3)nc3ccccc3c2=O)CC1 |  | inactive: -2.75%
16 | O=C(CCCCCN1C(=O)[C@@H]2Cc3ccccc3CN2C1=O)Nc1cccc(F)c1 | inconclusive [inhibitor, single point] | 
17 | COc1ccc(NC(=O)C(NC(=O)OC(C)(C)C)C(C)OCc2ccccc2)cc1 (centres undefined) |  | inactive: 0.0611%
18 | COc1cccc(/C=N/NC(=S)Nc2cccc(S(=O)(=O)N(C)C)c2)c1 | active: 4.47 µM | 
19 | Nc1cc(=O)[nH]c(SCC(=O)Nc2ccccc2Sc2ccc(Cl)cc2)n1 | inconclusive [inhibitor, single point] | 
20 | Cc1ccc(C)c(/C=N/NC(=S)NC(C)C)c1 | active: 3.16 µM | 
21 | C/C(=N/NS(=O)(=O)c1ccc(Cl)cc1)c1ccncc1 |  | inactive: -0.735%
22 | COc1ccc(CCNC(=O)C2CCCN2S(=O)(=O)c2cccc3nsnc23)cc1OC (centres undefined) |  | inactive: -1.72%
23 | COc1ccc(CN(C)C(=O)c2cc(-c3ccc(C)cc3C)nc3ccccc23)c(OC)c1OC |  | inactive: -21.6%
24 | NC(=O)COC(=O)CCCSc1nc2ccccc2s1 | active: 12.6 µM | 
25 | CS(=O)(=O)N(CC(=O)N1CCN(c2ccccc2)CC1)c1cc(C(F)(F)F)ccc1Cl |  | inactive: 3.1%
26 | Cc1ccc(OCc2n[nH]c(=S)n2-c2ccc(Br)cc2)cc1 | active: 5.62 µM | 
27 | CC(C)(C)c1ccc(-c2nc(C=O)c3ccccn23)cc1 |  | inactive: 10.7%

Row | SMILES | Potency | activity, negative = inhibition
28 | Cc1ccccc1NC(=O)/C(C#N)=C/c1ccsc1 | inconclusive [activator, full curve, poor fit] | 
29 | Cc1nnc(N/N=C/c2c(Cl)cccc2Cl)n1N | inconclusive [inhibitor, partial curve, poor fit] | 
30 | COC(=O)c1c(N2C(=O)[C@H]3[C@@H](C2=O)[C@]2(C(=O)Nc4ccccc42)N2CCC[C@@H]32)sc(C)c1C |  | inactive: -3.21%
31 | Cc1occc1-c1nnc(SCC(=O)c2cc3ccccc3oc2=O)o1 | inconclusive [inhibitor, single point] | 
32 | CC1(C)CC(=O)C(N=Nc2c(Cl)cc(Cl)cc2Cl)=C(O)C1 | inconclusive [inhibitor, single point] | 
33 | O=C(Nc1ccc(F)cc1)N1CCCN(c2ccc(C(F)(F)F)cn2)CC1 | inconclusive [inhibitor, single point] | 
34 | COc1ccc(N2C(=O)NC3CC2(C)Oc2ccc(Br)cc23)cc1OC (centres undefined) |  | inactive: -0.203%
35 | CN(C(=O)CSC(=O)c1ccccc1)c1ccccc1 |  | inactive: 14.8%
36 | COc1ccc(C(=O)NC(=S)N2CCCC2)cc1 |  | inactive: -11.9%
37 | CC(C)CC(=O)NC(=S)Nc1nc(-c2cccc3ccccc23)cs1 | active: 12.6 µM | 
38 | COc1cc(/C=N/NC(=O)c2cccnc2)ccc1OC(=O)c1ccc([N+](=O)[O-])cc1 |  | inactive: 1.45% [at 10 µM]
39 | COCCN(C(=S)Nc1cccc(OC)c1)C(C)c1cccs1 (centres undefined) | inconclusive [inhibitor, single point] | 
40 | CCN1CN(Cc2ccco2)CNC1=S |  | inactive: 3.94%
41 | Cc1ccc(S(=O)(=O)N(CCCO)CC(O)CON=C2c3ccccc3-c3ccccc32)cc1 (centres undefined) | inconclusive [inhibitor, single point] | 
42 | Cc1ccc(CNC(=O)CCSCc2cccc(F)c2)cc1 |  | inactive: 0.73%
43 | CCc1nc(SCC(=O)N2c3ccccc3CC2C)c2c(C)c(C)sc2n1 (centres undefined) | inconclusive [inhibitor, single point] | 
44 | Cc1ccc(S(=O)(=O)NCCNC(=O)c2nonc2N)cc1 |  | inactive: -14.7%
45 | Cc1ccc(NS(=O)(=O)c2ccc(OCC(=O)Nc3cccc([N+](=O)[O-])c3)c(C)c2)cc1 | inconclusive [inhibitor, single point] | 
46 | Cn1c(SCC(=O)c2ccc(-c3ccccc3)cc2)nnc1-c1ccco1 |  | inactive: 0.602%
47 | COc1ccc(C(=O)n2cc(C(=O)c3cc(C)ccc3O)cn2)cc1OC | inconclusive [inhibitor, single point] | 
48 | CCOc1cc(N2CCOCC2)c(OCC)cc1NCC(=O)N1CCN(Cc2ccccc2)CC1 | inconclusive [inhibitor, single point] | 
49 | COc1ccc(N2C(=O)CC(Sc3nnc(-c4ccccc4F)n3C)C2=O)cc1 (centres undefined) | inconclusive [inhibitor, single point] | 
50 | O=C(/C=C/c1ccc2c(c1)OCO2)Nc1nc2ccccc2s1 | inconclusive [inhibitor, single point] | 
51 | Cc1cccc(NC(=O)CSc2cccc3cccnc23)c1 | inconclusive [inhibitor, partial curve] | 
52 | COc1cccc(/C=C2/Sc3ccc(C(=O)NCCN4CCCC4)cc3NC2=O)c1 | inconclusive [inhibitor, single point] | 
53 | CCCCCCCN1N=C(C)C(C(=O)c2ccccc2)C1=O (centres undefined) | inconclusive [inhibitor, single point] | 
54 | COC1CC2CCC(C)[C@](O)(O2)C(=O)C(=O)N2CCCCC2C(=O)OC(C(C)CC2CCC(O)C(OC)C2)CC(=O)C(C)/C=C(/C)C(O)C(OC)C(=O)C(C)CC(C)C=CC=C/C=C\1C (some centres undefined) | inconclusive [inhibitor, partial curve, poor fit] | 

Row | SMILES | Potency | activity, negative = inhibition
55 | CCCCCN1CSC(=S)N(Cc2ccccc2)C1 | active: 17.8 µM | 
56 | CC(C)(C)C(=O)c1cn(CC(=O)NCc2ccc3c(c2)OCO3)c2ccccc12 | inconclusive [activator, single point] | 
57 | CCOc1ccccc1Oc1cn[nH]c1-c1ccc(OC)cc1O | inconclusive [inhibitor, single point] | 
58 | CCCN1CN(CCc2ccccc2)CNC1=S | active: 1.78 µM | 
59 | CCOc1cc(/C=C(\C#N)c2[nH]nc(N)c2C#N)ccc1O | inconclusive [inhibitor, single point] | 
60 | Nc1ccc2nc(-c3cccnc3)[nH]c2c1 |  | inactive: 7.15%
61 | CCc1nnc(NC(=O)c2nc(S(=O)(=O)Cc3cccc(C)c3)ncc2Cl)s1 | active: 7.94 µM | 
62 | Cc1ccc2nc(NC(=O)CCCC(=O)O)sc2c1 | active: 0.794 µM | 
63 | Cc1ccccc1C1CC(=O)Oc2cc(O)ccc21 (centres undefined) |  | inactive: 1.98% [at 96.6 µM]
64 | COc1ccc(/C(N)=N/OC(=O)c2cccc([N+](=O)[O-])c2)cc1 | inconclusive [inhibitor, single point] | 
65 | CCCCC(=O)Nc1nc2c(OC)cc([N+](=O)[O-])cc2s1 |  | inactive: -7.83%
66 | Cc1cc(C)nc(N/N=C/c2ccccc2OCc2cccc(Br)c2)n1 | active: 35.5 µM | 
67 | Cn1c(CSCc2ccc(F)cc2)nnc1SCC(=O)Nc1cccc(C(=O)O)c1 |  | inactive: -0.418%
68 | O=C(N/N=C/c1cccc(Oc2ccccc2)c1)c1ccc(O)cc1O | active: 2.24 µM | 
69 | COc1cccc(CN(C)C(=S)Nc2cccc(C)c2)c1 | inconclusive [inhibitor, single point] | 
70 | CC(=O)OCC(=O)[C@@]12OC3(CCCC3)OC1CC1C3CCC4=CC(=O)C=C[C@@]4(C)[C@]3(F)C(O)C[C@]12C (some centres undefined) |  | inactive: -11.4%
71 | Cc1ccc2nc(Cl)c(/C=C/C(=O)c3ccco3)cc2c1 | inconclusive [activator, full curve, poor fit] | 
72 | N#CC(C#N)=Cc1cn(-c2ncc(C(F)(F)F)cc2Cl)c2ccccc12 | inconclusive [inhibitor, single point] | 
73 | Cc1ccccc1CNC(=O)c1ccc(Cl)c([N+](=O)[O-])c1 |  | inactive: -9.22%
74 | CCOC(=O)c1sc2nc(N3CCOCC3)c3c(c2c1N)CCN(Cc1ccccc1)C3 |  | inactive: -3.19%
75 | CCc1ccc(N2CC(C(=O)Nc3ccc4c(c3)OCCO4)CC2=O)cc1 (centres undefined) |  | inactive: -5.16%
76 | CC1=C/C(=N\OS(=O)(=O)c2ccccc2)C(C)=CC1=O | active: 2.51 µM | 
77 | N=c1ccn(Cc2ccc(F)cc2)cc1 | inconclusive [inhibitor, single point] | 
78 | CC1CC(Nc2cccc(O)c2)=CC(=O)O1 (centres undefined) |  | inactive: -2.25%
79 | Cc1ccc(-c2cc(-c3ccc(C)cc3O)[nH]n2)cc1 | active: 7.08 µM | 
